The results in this text go back to PubChem BioAssay AID1240 (Sanford-Burnham Center for Chemical Genomics, 2008).

The whole screen tested about 50,000 compounds, of which about 800 (1.6%) showed an effect of 50% or more. Some of the results follow.

This assay has as its target Bcl-2-like protein 10 (Homo sapiens) (UniProt Q9HD36). Nature of the assay: TR3 peptide-Bcl-B binding displacers, biochemical primary FP assay, phenotype converters (AID 1240).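 Also: 0% = Bcl-B with tracer peptide and DMSO and 100% = tracer peptide lacking Bcl-B.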 The settings on record: GST-Bcl-B / FITC-TR3 peptide fluorescence polarization; stronger effect = higher value; compound at 3.75 mg/L. In general terms: In fluorescence polarisation assays a small probe gives low polarisation when free and higher when bound to something large.
Sequence of UniProt Q9HD36 (Q9HD36 whole entry, looked up): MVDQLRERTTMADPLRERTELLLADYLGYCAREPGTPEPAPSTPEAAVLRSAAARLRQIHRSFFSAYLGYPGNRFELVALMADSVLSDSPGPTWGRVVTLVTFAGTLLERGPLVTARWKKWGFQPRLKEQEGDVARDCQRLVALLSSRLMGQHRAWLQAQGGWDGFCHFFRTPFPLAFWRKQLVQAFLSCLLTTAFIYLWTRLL
As to `COc1ccc(-n2nc3cc(C)c(NC(=O)COc4ccc(C)cc4)cc3n2)cc1`, the displacement amounted to 0.8%.

With `CCNc1cc(Nc2ccccc2)c2c3c(onc13)-c1ccccc1C2=O`, the displacement was 12.6%.

Consider `COc1ccc(Cl)cc1C(=O)Nc1cc(C(F)(F)F)ccc1Cl`, for which the displacement was -8.5%.

With `O=C(Nc1cc(-c2ccc(F)cc2)[nH]n1)c1ccccc1[N+](=O)[O-]`, the displacement was 11.5%.

`COc1ccc(CNCc2ccc(F)cc2)cc1OC`: the displacement was 1.2%.

In the case of `O=C(Nc1ccc(Cl)c(Cl)c1)Nc1nnc(-c2ccccc2F)s1`, the displacement stood at 13.4%.

Turning to `COc1ccc(-c2cc3nc[nH]c(=O)c3s2)cc1`, the displacement was -9.8%.

Regarding `CC(NCc1ccc2c(c1)OCO2)C12CC3CC(CC(C3)C1)C2` (configuration not stated), the displacement was -13.9%.

In the case of `COc1ccc(-n2nc3cc(C)c(NC(=O)c4ccc(OC)c(OC)c4)cc3n2)cc1`, the displacement stood at 2.2%.

Regarding `COC(=O)c1cc(C(=O)Nc2ncccc2C)cc([N+](=O)[O-])c1`, the displacement stood at 55.2%.

Take `COC(=O)CCN1C(=O)/C(=C\c2ccc([N+](=O)[O-])cc2)SC1=S`: the displacement is -5.7%.

With `CC1(C)CNC(=O)c2sc(N)nc2C1`, the displacement is -0.7%.

As for `O=C1C(=O)N(CC2CCCO2)C(c2ccc(F)cc2)/C1=C(/O)c1ccccc1` (configuration not stated), the displacement was determined as 17.1%.

As to `Cc1nc2cc(-c3ccc(F)cc3)[nH]n2c(=O)c1C`, the displacement is -7.3%.

Take `Cc1ccc([N+](=O)[O-])cc1-c1ccc(/C=C2/C(=O)NN(c3ccc(Cl)cc3)C2=O)o1`: the displacement stood at 23.7%.

Consider `COc1ccc(C(=S)N2CCN(c3ccccc3)CC2)cc1`, for which the displacement came to 9.6%.

Regarding `O=C(c1ccc(C#CC2(O)CCCCC2)cc1)N1CCN(c2ccc(F)cc2)CC1`, the displacement was 4.5%.

`CCOc1ccc(NC(=O)c2ccc(C)c([N+](=O)[O-])c2)cc1`: the displacement amounted to 12.7%.

As for `Cc1ccc(CNC(=O)C(=O)Nc2cccc3ccccc23)cc1`, the displacement came to 5.6%.

For the compound `COc1ccc(Cl)cc1NC(=O)c1cc(-c2cccs2)nc2ccccc12`, the displacement was 8.5%.

For `COc1ccc(C2CC(c3ccc(Br)cc3)=NN2C(=O)CCC(=O)O)cc1` (configuration not stated), the displacement is -13.5%.

For the compound `Cc1cc(C)nc(SCC(=O)N/N=C/c2ccc([N+](=O)[O-])cc2)n1`, the displacement was 11.5%.

As for `O=C(CSCc1ccc(Cl)cc1)N/N=C/c1ccc(Sc2cccc3cccnc23)o1`, the displacement came to 25.1%.

Take `O=C1CC(N2CCC(Cc3ccccc3)CC2)C(=O)N1c1cccc(Br)c1` (configuration not stated): the displacement is -2.6%.

Take `CCOC(=O)c1ccc(NC(=S)NC(NC(=O)c2ccccc2Br)C(Cl)(Cl)Cl)cc1` (configuration not stated): the displacement is 11.2%.

Turning to `Cc1ccc(S(=O)(=O)/N=C(/Nc2ccc(C)c(Cl)c2)Nc2nc(C)cc(C)n2)cc1`, the displacement was 7.3%.

For `O=C(/C=C/c1ccc(OCc2ccccc2)cc1)c1ccc(Br)cc1`, the displacement stood at 12.1%.

`CCc1ccc(NC(=O)C2CC(=O)N=C(N)S2)cc1` (configuration not stated): the displacement was -2.4%.

As to `O=C1C2C3C=CC(C3)C2C(=O)N1c1cc([N+](=O)[O-])ccc1O` (configuration not stated), the displacement was -6.2%.

Consider `COc1ccc([N+](=O)[O-])cc1N1C(=O)C2C3c4ccccc4C(C(C)=O)(c4ccccc43)C2C1=O` (configuration not stated), for which the displacement is -9.5%.

As to `COc1ccc(C(=O)Nc2ccc(N3CCN(C(C)=O)CC3)cc2)cc1`, the displacement stood at 3.9%.

On to `C=CCNC(=S)Nc1nc(C)c(C)s1`, for which the displacement is -2.5%.

As to `Cn1cc(C(=O)N/N=C/C=C(\Br)c2ccccc2)ccc1=O`, the displacement was determined as 3%.

Regarding `Cc1cccc(-n2c(CCN3C(=O)c4ccccc4C3=O)nc3ccccc3c2=O)n1`, the displacement is -0.9%.

For the compound `CC(C)(C)NC(=O)CSc1ncccn1`, the displacement amounted to 12.1%.

For `COc1ccc(OC)c(/C=C2/SC(=O)N(CNc3ccc(Br)cc3C)C2=O)c1`, the displacement was found to be 90.9%.

In the case of `C#Cc1c(C)n(-c2ccccc2)c2c(=O)n(Cc3ccccc3)cnc12`, the displacement amounted to 9%.

Turning to `N/C(=N\OC(=O)c1ccc(Br)cc1)c1ccccn1`, the displacement is 2.2%.

Regarding `CCOc1cc(/C=N/NC(=O)COc2ccc(Cl)cc2Br)cc([N+](=O)[O-])c1O`, the displacement came out at 5.9%.

For `O=S(=O)(Cc1ccccc1)Nc1ccc(Br)cn1`, the displacement came out at 10.3%.

Regarding `COC(=O)CCC(=O)NCCc1c[nH]c2ccc(OC)cc12`, the displacement was 11.1%.

For `Cc1no[n+]([O-])c1COc1ccc(/C=C2\NC(=S)NC2=O)cc1`, the displacement was -73.2%.

As for `COc1cc(OC)c(OC)cc1CN1CCN(Cc2cc(Br)ccc2O)CC1`, the displacement came out at 11.3%.

Turning to `O=C(N1CCN(c2c(F)c(F)c(C(F)(F)F)c(F)c2F)CC1)C12CC3CC(CC(C3)C1)C2`, the displacement was determined as 16.6%.

As for `CC(/C=C/c1ccc(N(C)C)cc1)=N\N=C(/N)SC1CC(=O)N(c2ccc(F)cc2)C1=O` (configuration not stated), the displacement is -8.3%.

As to `O=C(Nc1ccc(Br)cc1)c1cccc(S(=O)(=O)NC2CCCCC2)c1`, the displacement was -8.9%.

As for `COc1ccc(N(CC(=O)NCC(C)C)S(C)(=O)=O)c(OC)c1`, the displacement was -2.8%.

In the case of `C=C(C)Cn1c(SCC(=O)OC)nc2sc3c(c2c1=O)CCC(C(C)(C)C)C3` (configuration not stated), the displacement was -6.4%.

In the case of `COC(=O)c1ccccc1NC(=O)c1ccncc1`, the displacement is -0.4%.

Consider `O=[N+]([O-])c1ccc(NCCCNS(=O)(=O)c2ccc3ccccc3c2)cc1`, for which the displacement worked out at 4.1%.

Turning to `C=CCN1C(=O)c2ccccc2C1(O)c1ccc(F)cc1` (configuration not stated), the displacement was -8.4%.

Turning to `C#CCOc1ccc(Br)c(/C=N/NS(=O)(=O)c2ccc(C)cc2)c1`, the displacement is -5.8%.

As to `O=C(c1ccc(Cl)cc1[N+](=O)[O-])N1CCN(C(c2ccccc2)c2ccccc2)CC1`, the displacement came to 4.7%.

With `O=C(/C=C/c1cccc(NC(=O)c2ccc([N+](=O)[O-])cc2)c1)c1ccccc1`, the displacement is 1%.

With `CCOC(=O)c1ccc(NC(=S)NC(NC(=O)c2ccccc2Cl)C(Cl)(Cl)Cl)cc1` (configuration not stated), the displacement was -1.3%.

For the compound `CC(C)(C)c1nnc(NC(=O)CSc2nnnn2-c2ccccc2)s1`, the displacement was found to be 2.2%.

As to `O=C(O)CCC(=O)Nc1ccccc1C(=O)Nc1ccccc1`, the displacement was -5.3%.

For the compound `COc1ccc(NC(=O)C(NC(=O)c2ccccc2)C23CC4CC(CC(C4)C2)C3)cc1` (configuration not stated), the displacement was -6%.

Turning to `C(=N\n1cnnc1)/c1cccc(OCCOc2ccc(C3CCCCC3)cc2)c1`, the displacement is -7.4%.

`CCn1c(C(O)c2cc(OC)c(OC)c(OC)c2)nc2ccccc21` (configuration not stated): the displacement is -5.2%.

With `C=CCn1c2ccccc2n2cc(-c3cccs3)nc12`, the displacement is -8.8%.

As for `CN(C)c1ccc(/C=C/C(=O)c2ccc3ccccc3c2)cc1`, the displacement is -29.8%.

`O=C(c1ccccc1I)N1CCN(c2ccccc2)CC1`: the displacement was -1.2%.

As to `O=C(O)/C=C/c1ccc(-c2ccc(Cl)c(Cl)c2)o1`, the displacement was -2.2%.

On to `Cc1ccccc1C(=O)NNC(=O)c1ccc(Br)cc1`, for which the displacement was -6.4%.

Take `O=C(CC(c1ccccc1)c1ccccc1)NCC1(c2ccccc2)CCOCC1`: the displacement was -10.2%.

Turning to `COc1ccc(NC(=O)c2ccc(Cl)cc2)c2ncccc12`, the displacement amounted to 6.5%.

For `CCOc1ccc(NC(=O)CSc2nc(C)cc(C)n2)cc1`, the displacement stood at 7.4%.

For `Cc1cc(NC(=O)c2cc3ccccc3o2)ccc1NC(=O)c1ccccc1`, the displacement is -2.7%.

In the case of `O=C(N=Nc1c(O)n(CN2CCOCC2)c2ccccc12)c1ccccc1`, the displacement is -4.3%.

Regarding `COc1cc2c(cc1NC(=O)COc1ccc(C)cc1C)oc1ccccc12`, the displacement came to 1.8%.

With `Cc1cnc2cc(Cl)c(Cl)cc2n1`, the displacement is 10%.

With `CC1(C)CC(NC(=O)/C=C/c2ccccc2)CC(C)(C)N1`, the displacement came to 9.4%.

With `Cc1cccc(C(=O)Nc2sc3c(c2C(=O)NCc2ccco2)CCC(C)C3)c1` (configuration not stated), the displacement is -2.7%.

As to `C=CCn1c(SCC(=O)c2ccc(OC)cc2)nc2sc3c(c2c1=O)CCCC3`, the displacement is 10.5%.

As to `CSc1ccc(CN2CCN(C(=O)c3cccc(F)c3)CC2)cc1`, the displacement is -15%.

Turning to `Cc1cccc(C(=O)Nc2ccc3c(c2)OCO3)c1`, the displacement stood at 11.6%.

For the compound `Cc1ccc(P(=O)(CCCO)c2ccc(C)cc2)cc1`, the displacement was determined as 3.6%.

Take `CC(=O)Nc1ccccc1C(=O)Nc1ccccc1`: the displacement was 5.4%.

On to `CCOC(=O)COc1c(Cl)cc(/C=C2\C(=O)NC(=O)N(c3ccc(C)cc3)C2=O)cc1Cl`, for which the displacement is -4%.

As to `CCc1ccccc1N1C(=O)/C(=C/c2cc(C)n(-c3cccnc3)c2C)C(=O)NC1=S`, the displacement is -0.4%.

Regarding `CCCCNC(=O)C(Sc1ccccc1)c1ccccc1` (configuration not stated), the displacement is -13.3%.

On to `COc1ccc(CC(=O)Nc2ccc3c(c2)OCO3)cc1OC`, for which the displacement is -12.8%.

In the case of `Cc1cc(Nc2ccc3c(c2)OCO3)n2c(nc3ccccc32)c1C#N`, the displacement stood at 135%.

With `Nc1nc2ccccc2n1/N=C/c1ccccc1`, the displacement came out at 5.8%.

For `O=C(Nc1ccc2oc(-c3cccc(Cl)c3Cl)nc2c1)c1ccccc1[N+](=O)[O-]`, the displacement was -1.1%.

In the case of `COc1ccc(Br)cc1/C=C/C(=O)Nc1ccc(C)cc1[N+](=O)[O-]`, the displacement was 87.4%.

As to `Cn1c(O)c(C=NCC2CCN(C(=S)Nc3ccccc3)CC2)c(=O)n(C)c1=O`, the displacement is -7%.

Consider `O=C(NN1CCOCC1)c1ccc([N+](=O)[O-])cc1[N+](=O)[O-]`, for which the displacement turned out to be 8.7%.

Turning to `CCc1ncc(C(O)(c2ccccc2)c2ccc(C)cc2)n1C` (configuration not stated), the displacement was -7.2%.

Regarding `Cc1cccc(C(=O)Nc2nc3ccc(Br)cc3s2)c1`, the displacement is 9.2%.

With `CCOCCOC(=O)C1=C(C)NC2=C(C(=O)CCC2)C1c1cccc(Cl)c1Cl` (configuration not stated), the displacement worked out at 6.8%.

With `O=C(NCCCN1CCOCC1)/C(=C/c1ccc(-c2ccc(Br)cc2)o1)NC(=O)c1ccccc1`, the displacement turned out to be 7.3%.

With `COC(=O)c1c(C)oc2cc(Br)c(OCc3ccccc3F)cc12`, the displacement turned out to be 10.3%.

With `C=CCN1C(=O)/C(=C\c2cc3c(cc2Br)OCO3)C(=O)NC1=S`, the displacement was found to be 6.8%.

On to `COc1ccc2oc(=O)c(C(=O)NCc3ccccc3)cc2c1`, for which the displacement came out at 17%.

Take `CCOc1ccccc1N1CCN(C(=O)c2cc(Cl)ccc2[N+](=O)[O-])CC1`: the displacement is -5.4%.

Consider `O=C(c1ccccc1)c1cc(Cl)ccc1N=Cc1ccc(Br)s1`, for which the displacement is -0.1%.

As for `CCOC(=O)C1=C(O)/C(=C/c2cc(C)n(-c3ccccc3)c2C)N=C1C`, the displacement came to 26.1%.

With `COc1cc2nc(CCCOc3ccc(Cl)cc3Cl)oc(=O)c2cc1OC`, the displacement is 5.7%.

As for `Cc1cccc(OCC(=O)Nc2ccc(C)c(C)c2)c1`, the displacement was -13.9%.

As for `CCN(CC)C(=O)C12CC3CC(C1)CC(C(=O)N(CC)CC)(C3)C2`, the displacement was -6.4%.

On to `CC(=O)NS(=O)(=O)c1ccc(NC(=O)c2ccccc2OC(C)=O)cc1`, for which the displacement is -2.6%.

Regarding `COc1ccc(-c2csc(Nc3ccccc3OC)n2)cc1`, the displacement was -9.7%.

With `COc1ccc(N2C(=O)NC(=O)/C(=C/c3cc(Cl)c(OCCOc4ccccc4)c(OC)c3)C2=O)cc1`, the displacement is 11.9%.

Take `COC(=O)c1cccc(NC(=O)/C=C/c2ccc(OC)cc2)c1`: the displacement amounted to 0.1%.

As for `COc1cccc2c1NC(c1ccc(Cl)cc1)C1CC=CC21` (configuration not stated), the displacement stood at 9.1%.
